# According to the supplement of paper PMC11417369:
# ± gives the standard deviation of the averaged measurements. The list shows a part of the results.
# Tested on: PfAP2-G AP2 domain (GST-tagged)
# Assay: gcPBM binding intensity (ln(normalized median fluorescence intensity)); higher = stronger DNA binding
# Procedure, shortened: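 GST-fused DNA-binding domains of P. falciparum, expressed in E. coli, were applied at about 25 μg on average for 1 h to an Agilent 4 × 180k array of primer-extended double-stranded 36-bp intergenic genomic probes and negative controls. Binding intensity is the highest Masliner-normalised natural-log median intensity across replicate spots of either probe orientation, measured with Alexa488 anti-GST antibody and a 488 nm scan.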
row,Sequence,gcPBM binding intensity (ln)
1,AAATAATATAAATACACACACACATATATAAATACA [CACACA_site4465],10.02 ± 0.057
2,ATATATATAATAAGTGGTACAAGTTATTCATTAAAT [XGTACX_site7063],11.3 ± 0.74
3,CAATAAATCGAAATCGTGCACGGACACATGCAGTAG,11.2 ± 0.71
4,TTTTTTTATACAATTTTATATATTAAATATTATAAT [CACACA_negctrl_site226],9.765 ± 0.049
5,AAAGAAAACGGACTTTGTACTTAAATATAATATAAA [XGTACX_site8585],11.2 ± 0.8
6,TAAAGTTATATATTATGTACATATTTGTATACATTT [XGTACX_site2516],11.2 ± 0.73
7,ACAAAAATATTATATTGTACATTATTAGTTCATATT [XGTACX_site6750],10.8 ± 0.48
8,TTTTTATATAAATAATGTACATTTGGTTTTATTATA [XGTACX_site2125],10.9 ± 0.43
9,AACACCCACAGACACACACACAAAAATGATTAAAAA [CACACA_site2433],10.3 ± 0.52
10,TATTTGTATAAATAAAAATAATATATATCAAATAAC [CACACA_negctrl_site218],9.77 ± 0.028
11,TATCAATTTTTCTGGCTATCCAATTAGGGGAAGCCA [CACACA_negctrl_site1045],9.78 ± 0.19
12,TGTGTGTGTTCATGGGTGCTTTAATACTATTATAGG [GTGCAC_site9465],10.7 ± 0.57
13,TATTATAAAAATATTCAGATACATTAACTTACTTTT [XGTACX_negctrl_site4],9.56 ± 0.28
14,TATTTGCTACATATATGTACTAAAAACTTTTTGCTT [XGTACX_site2362],11.1 ± 0.58
15,ATTTGCTCACAAGAAGCACACAAAAAAAGAAAAAAA [CACACA_site9338],10.1 ± 0.14
16,CAAAAAATTTGACGTAGTACTTAAAAAAAAAAAAAA [XGTACX_site4523],11.1 ± 0.89
17,AAGAAAATATAAAATGCACACTATAAATTGTATTTA [CACACA_site4257],9.83 ± 0.014
18,TAATTATATATATATGCATGTTATAATTTTTATTTT [TGCATGCA_site78],9.54 ± 0.014
19,ATATAAATAAACAGGTGTACTATAATGTTCATAGTA [XGTACX_site1553],11.2 ± 0.63
20,GGGAAAATATTTGGGTGTACAAACAAATTAGCTAGC [XGTACX_site6795],11.3 ± 0.95
21,TATGATTTCACATAATGTACTTGCTAATTCGTGAAT [XGTACX_site1408],11 ± 0.86
22,TCTTTAACAAGTTAAACACACATACATAAATACATA [CACACA_site5406],10.1 ± 0.35

row,Sequence,gcPBM binding intensity (ln)
1,TTATGTCATAAATGCACACATATACATTGTTTTGAT [CACACA_site646],9.945 ± 0.007
2,TTTTATGAATAATTATGTACATAACAAATGATATAT [XGTACX_site8318],11.2 ± 0.71
3,TACAAAAAAAAATAAAATACATATATATATATATAT [XGTACX_negctrl_site608],10.1 ± 0.73
4,CCCTATATAAATAGCTGTACATTTGAACATGTTCAG [XGTACX_site2187],11 ± 0.58
5,CATTTACATGCCAACATGCACTGAACAATCTTTATA [GTGCAC_site9797],9.98 ± 0.057
6,ACAAAACTTTTAAGAACACACAAAAATGTACTATCG [CACACA_site7245],10.9 ± 0.52
7,CAATAAAAATTAAAATGTACAAATAAATATAAATAT [XGTACX_site7265],10.8 ± 0.29
8,TTTACAGGAAAAAATACACACATTATTTTACCTTAT [CACACA_site2833],9.9 ± 0.071
9,AGTGTGCTCAGCTTAGCACAAATTGGAATACCATGT [CACACA_negctrl_site367],10.2 ± 0.14
10,ATGAATTATAAATATTCACACAATATTTTTCATATG [CACACA_site4484],9.88 ± 0.31
11,TTTTTTTCTTAAAGATGTACTTTTTAAAAATAATCT [XGTACX_site1429],11.4 ± 1
12,GTAGTAATAAATTAAAGTACAGAATATATTATACTA [XGTACX_site2809],11.2 ± 0.9
13,GAAAATGAAATCCTTGCATGTAAAATTAAAATAGAA [TGCATGCA_site569],9.77 ± 0.13
14,AAAAGGGAAATAAAATAAAAAAAGAAACATATATAG [CACACA_negctrl_site455],9.84 ± 0.23
15,GATTCTTCACCGTACTCACACATATATATATATATA [CACACA_site5665],11.1 ± 0.73
16,TCTTTTTTTTTTAAACGTACATTGCATTATCACGTA [XGTACX_site6873],11.2 ± 0.78
17,ATCCATTATTTTTGTTGTACGGGTAACTTTAAAAAG [XGTACX_site2226],11.3 ± 0.97
18,AGCTCTTGTCATTTTGCACACACACCCGTATAGGTT [CACACA_site3056],10.23 ± 0.035
19,ATTTTTTTATAAGAAAATTTCTAACGTTAAAAAAAA [CACACA_negctrl_site1367],9.9 ± 0.18
20,CAAACAAACAAATATACACACTTTTGTATAAAGTAA [CACACA_site5860],9.83 ± 0.057
21,TATAATTATATATATAGTACAGATTTGTTATGTTTA [XGTACX_site7724],10.8 ± 0.59
22,TAATTATATGTATACACACACATACATTTACATAAC [CACACA_site3238],10.2 ± 0.14

row,Sequence,gcPBM binding intensity (ln)
1,TTAATTTCTATATACGCATGTATGAATAAGATATTG [TGCATGCA_site202],9.99 ± 0.18
2,TATCTCATAGTATACACACACACACCCACCCATATA [CACACA_site1739],10.5 ± 0.28
3,AATATATATATATTCACACATAAAAAAGTAAAAAAA [CACACA_site5040],9.94 ± 0.014
4,CACACGCACGAACACACACACACACGCATATAAATA [CACACA_site6302],10.6 ± 0.52
5,ATTAAGACACATTGCACACGTGCACCCATAGAAAAA [CACACA_site408],10.7 ± 0.57
6,TATTTATTATTAAGATGTACATAAAACACTGAATAA [XGTACX_site4246],11.3 ± 0.79
7,GACCATATGAATAATGCACACGTTTTAAAATATTAA [CACACA_site5312],10.23 ± 0.028
8,TGAAAAAGGAAAAAAAAAAAAAAAAAAAAAACGAAA [GTGCAC_negctrl_site555],9.65 ± 0.11
9,ATAATAATATATATTGTACACACAAAATGGGAAAAA [CACACA_site8568],11.4 ± 0.67
10,TTTTAATTAAGACACACACACACATATAAATATGTA [CACACA_site7144],10.1 ± 0.17
11,TATCATTTCATATCAAGTACAAACATTTTACATATA [XGTACX_site5307],11 ± 0.62
12,TATATATATATAATAGTGCATAAATAAATATATAAA,9.99 ± 0.17
13,TAAAAAATAAAAATTGCACACTAAAAAATTACCCAC [CACACA_site5823],10.4 ± 0.38
14,TTGATTTTTATTTTTAAAATAAATAAATTTCAAATG [TGCATGCA_negctrl_site199],9.71 ± 0.11
15,TTTTTTTTTCTTTGGTGTACAATGTAATAGAAAATA [XGTACX_site227],11.4 ± 0.86
16,AAAAAAAACAAACACACACACAAATATTTATATATT [CACACA_site436],9.925 ± 0.035
17,TAAAAAGAAATGTAAAGTACAAATTTGAATAACATG [XGTACX_site7981],10.9 ± 0.45
18,AAAGAGAACAGAAGTACACACATGTTCTTTTAGTAA [CACACA_site5557],11.6 ± 0.96
19,ATATTCTGCTGTTTAGTGCAATTATGAAATTATGAT,9.98 ± 0.16
20,AGGAAAAAAGAAAAAACACACATAAATATATATATA [CACACA_site3085],9.77 ± 0.37
21,CATACAGACATACATACACACATACCTATAAATATA [CACACA_site6995],10.2 ± 0.26
22,AAATGAAATAAAATCATATATTTATAATTATTATAA [TGCATGCA_negctrl_site612],9.32 ± 0.26

row,Sequence,gcPBM binding intensity (ln)
1,ATATGTATTTATATATGTTTGATTTTTTTTTTTTTT [TGCATGCA_negctrl_site506],9.595 ± 0.007
2,GTTTTATTTTGTTTCTATTTGACACATGTGATTATT [CACACA_negctrl_site1246],10.09 ± 0.099
3,ATTCAATATATATACACACACACTTTTAATAATTAA [CACACA_site3770],10.1 ± 0.15
4,ATATGTATGTATGTATGTACTTATTTATTTATTAAT [XGTACX_site8018],11.4 ± 0.81
5,TACATAAATTAAAACACACACACACTAATAAAAAAA [CACACA_site8712],10.12 ± 0.057
6,TAGCTCGTTCGGAGCACACACATATATATATATATA [CACACA_site1948],10.6 ± 0.79
7,TTTTTTTTTGAATATTGTACATATATATTACTTTTA [XGTACX_site5520],10.9 ± 0.51
8,AAAAAATTATATAAATGTACATTTTGGCTAGACATG [XGTACX_site5977],10.8 ± 0.52
9,CATATATATAATTATTCACACAATAGTTAAAAGTAT [CACACA_site5302],9.93 ± 0.057
10,TTAAAAATAATATTATGTACTAAGAATAAATATATA [XGTACX_site3100],10.7 ± 0.52
11,ATTTCATATACAAATTGTACATACAATTTTATGTTT [XGTACX_site3240],10.9 ± 0.46
12,CTTAATATTCTTTAAAGTACACAAAATAAGAATATA [XGTACX_site5489],11.4 ± 0.8
13,TGCAAGGAAAAACACACACACACATAAATGTATATA [CACACA_site751],10.2 ± 0.33
14,TCTTGTAAATATATGTGTATATTATATTTTATTATA [TGCATGCA_negctrl_site117],9.6 ± 0.028
15,TGTTAAAATAAAATCTATTACATTTTTATGGTTATA [XGTACX_negctrl_site525],9.555 ± 0.049
16,TTATATTTTTTAATTACACACAATTTTTATAAATAT [CACACA_site4148],9.985 ± 0.021
17,ATCTCATAAAACCGCACACACATAAAATTTGCATTA [CACACA_site3891],10.05 ± 0.021
18,AAAAAACACGCACATACACACAAAAATGTTATAAAT [CACACA_site6188],10.5 ± 0.51
19,ATATTGGAGCACAACACACACAAGTATAAATATGGA [CACACA_site6834],10.4 ± 0.3
20,CTAGTAAAAAATGCAAGTACATACATTATAAGTATA [XGTACX_site3908],11.2 ± 0.72
21,GTATAACACAAGTGAAGTACAGGGGTAAACATTTAT [XGTACX_site3203],11.5 ± 1.1
22,TACAGATAAAAGTACACACACACACCGATATATATA [CACACA_site4675],11.5 ± 0.96
